The results in this text go back to PMC5892938.

The other results are listed elsewhere or left out. At the low end of the ranking the order means little.

This assay has as its target GST-SBP-SLBP (stem-loop binding protein) (UniProt Q14493). Kind of assay: targeted RNA Bind-n-Seq.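 Also: DESeq read counts versus GST-SBP nonspecific binding control pulldown.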 As to conditions: RBNS binding buffer: 25 mM Tris pH 7.5, 150 mM KCl, 3 mM MgCl2, 0.1% Tween, 0.5 mg/mL BSA, 1 mM DTT; 27 nM protein, 750 pM RNA pool; temperature not stated; high values mean tight binding.
Regarding “GGUCACGUCUCAAUCAACUCUCAAGAGGGGGGGAAAACCCCUUUACCCUCAACCUCAACAGCUCGCAGUCAAG”, the binding signal (log2 fold change) was -0.137.

For “GGUCACGUCUCAAUCAACUCUUUUUCAGGAGUUUACUCCUGUAUACUCAACAGCUCGCAGUCAAG”, the binding signal (log2 fold change) came out at 0.0679.

“GGUCACGUCUCAAUCAACUCUUUCCCAGGAGUUUACUCCUGCAAUCUCAACAGCUCGCAGUCAAG”: the binding signal (log2 fold change) amounted to 0.109.

As for “GGUCACGUCUCAAUCAACUCAUUUCCCAGGGAAACCCCUGGCAUACUCAACAGCUCGCAGUCAAG”, the binding signal (log2 fold change) turned out to be 0.161.

Turning to “GGUCACGUCUCAAUCAACUCUACUUCCAGGGAAACCCCUGGCUUACUCAACAGCUCGCAGUCAAG”, the binding signal (log2 fold change) is -0.125.

Take “GGUCACGUCUCAAUCAACUCAUCUUCAGGAGUUUCCUCCUGUAUAUUCAACAGCUCGCAGUCAAG”: the binding signal (log2 fold change) is 0.127.

On to “GGUCACGUCUCAAUCAACUCUUCCCCAGGAGUUUUCUCCUGCAAUUUCAACAGCUCGCAGUCAAG”, for which the binding signal (log2 fold change) was -0.038.

“GGUCACGUCUCAAUCAACUCUACUUCCAGGGAAAGCCCUGGUUUUCUCAACAGCUCGCAGUCAAG”: the binding signal (log2 fold change) is -0.183.

For the sequence “GGUCACGUCUCAAUCAACUCUUCUCCCAGGGAAAUCCCUGGUUAACUCAACAGCUCGCAGUCAAG”, the binding signal (log2 fold change) was -0.152.

With “GGUCACGUCUCAAUCAACUCAAUUUCCAGGGAAAUCCCUGGCGUAUUCAACAGCUCGCAGUCAAG”, the binding signal (log2 fold change) came out at 0.0665.

As for “GGUCACGUCUCAAUCAACUCAACUUCAGGAGUUUCCUCCUGCAUACUCAACAGCUCGCAGUCAAG”, the binding signal (log2 fold change) was 0.102.

For “GGUCACGUCUCAAUCAACUCUUACGAGGGGGGGAAAACCCCUUUGCCCUCACUUUCAACAGCUCGCAGUCAAG”, the binding signal (log2 fold change) was -0.381.

For the sequence “GGUCACGUCUCAAUCAACUCAUCUCCCAGGGAAACCCCUGGCAUACUCAACAGCUCGCAGUCAAG”, the binding signal (log2 fold change) is -0.0609.

In the case of “GGUCACGUCUCAAUCAACUCAUUCUCAGGAGUUUGCUCCUGUAUUCUCAACAGCUCGCAGUCAAG”, the binding signal (log2 fold change) was -0.137.

Regarding “GGUCACGUCUCAAUCAACUCAUCUCCCAGGGAAACCCCUGGCAAUUUCAACAGCUCGCAGUCAAG”, the binding signal (log2 fold change) is -0.302.

With “GGUCACGUCUCAAUCAACUCUUAAGAGGGGGGGAAAACCCCUUUACCCUCACUUUCAACAGCUCGCAGUCAAG”, the binding signal (log2 fold change) was -0.0689.

Consider “GGUCACGUCUCAAUCAACUCUCUAGAGGGGGGGAAAACCCCUUUGCCCUCCGUAUCAACAGCUCGCAGUCAAG”, for which the binding signal (log2 fold change) was -0.254.

As to “GGUCACGUCUCAAUCAACUCAUCCUCCAGGGAAAUCCCUGGUAUACUCAACAGCUCGCAGUCAAG”, the binding signal (log2 fold change) was 0.0231.

Consider “GGUCACGUCUCAAUCAACUCUUCCCCCAGGGAAACCCCUGGUAAACUCAACAGCUCGCAGUCAAG”, for which the binding signal (log2 fold change) was -0.338.

Take “GGUCACGUCUCAAUCAACUCUUUCUCCAGGGAAAACCCUGGCUAACUCAACAGCUCGCAGUCAAG”: the binding signal (log2 fold change) was -0.0779.

Regarding “GGUCACGUCUCAAUCAACUCAUCUUCCAGGGAAAGCCCUGGUAUUCUCAACAGCUCGCAGUCAAG”, the binding signal (log2 fold change) amounted to 0.275.

“GGUCACGUCUCAAUCAACUCCCUAGAGGGGGGGAAAACCCCUUUGCCCUCAUUCUCAACAGCUCGCAGUCAAG”: the binding signal (log2 fold change) is -0.135.

Turning to “GGUCACGUCUCAAUCAACUCCUUCGAGGGGGGGAAAACCCCUUUACCCUCACUAUCAACAGCUCGCAGUCAAG”, the binding signal (log2 fold change) came out at 0.114.

Regarding “GGUCACGUCUCAAUCAACUCAUUUUCAGGAGUUUUCUCCUGUAGUCUCAACAGCUCGCAGUCAAG”, the binding signal (log2 fold change) amounted to 0.0166.

Consider “GGUCACGUCUCAAUCAACUCAACUCCAGGAGUUUGCUCCUGUAAUCUCAACAGCUCGCAGUCAAG”, for which the binding signal (log2 fold change) was found to be 0.143.

Turning to “GGUCACGUCUCAAUCAACUCAUUCCCAGGAGUUUACUCCUGCUAUUUCAACAGCUCGCAGUCAAG”, the binding signal (log2 fold change) is -0.199.

With “GGUCACGUCUCAAUCAACUCAUCUUCAGGAGUUUCCUCCUGCUUAUUCAACAGCUCGCAGUCAAG”, the binding signal (log2 fold change) was 0.0129.

As to “GGUCACGUCUCAAUCAACUCACUAGAGGGGGGGAAAACCCCUUUACCCUCAUAAUCAACAGCUCGCAGUCAAG”, the binding signal (log2 fold change) was -0.302.

On to “GGUCACGUCUCAAUCAACUCAAAAGAGGGGGGGAAAACCCCUUUGCCCUCGAAAUCAACAGCUCGCAGUCAAG”, for which the binding signal (log2 fold change) is 0.111.

Consider “GGUCACGUCUCAAUCAACUCAGUCUCCAGGGAAAGCCCUGGCUAUUUCAACAGCUCGCAGUCAAG”, for which the binding signal (log2 fold change) was -0.216.

For “GGUCACGUCUCAAUCAACUCAUCGUCAGGAGUUUUCUCCUGCAAACUCAACAGCUCGCAGUCAAG”, the binding signal (log2 fold change) was 0.121.

On to “GGUCACGUCUCAAUCAACUCAAUUCCCAGGGAAACCCCUGGCUUUUUCAACAGCUCGCAGUCAAG”, for which the binding signal (log2 fold change) was -0.164.

Consider “GGUCACGUCUCAAUCAACUCAAUUCCCAGGGAAAUCCCUGGCAUUCUCAACAGCUCGCAGUCAAG”, for which the binding signal (log2 fold change) came to 0.0712.

Take “GGUCACGUCUCAAUCAACUCACACGAGGGGGGGAAAACCCCUUUACCCUCAACCUCAACAGCUCGCAGUCAAG”: the binding signal (log2 fold change) is -0.12.

Turning to “GGUCACGUCUCAAUCAACUCAUUCUCCAGGGAAAUCCCUGGUUUAUUCAACAGCUCGCAGUCAAG”, the binding signal (log2 fold change) was found to be 0.0798.

With “GGUCACGUCUCAAUCAACUCUAUCUCAGGAGUUUCCUCCUGUUUUCUCAACAGCUCGCAGUCAAG”, the binding signal (log2 fold change) was -0.00215.

In the case of “GGUCACGUCUCAAUCAACUCACUAGAGGGGGGGAAAACCCCUUUGCCCUCAACUUCAACAGCUCGCAGUCAAG”, the binding signal (log2 fold change) turned out to be 0.151.

“GGUCACGUCUCAAUCAACUCGUCUUCAGGAGUUUUCUCCUGUUAUUUCAACAGCUCGCAGUCAAG”: the binding signal (log2 fold change) was found to be 0.0505.

For “GGUCACGUCUCAAUCAACUCACAAGAGGGGGGGAAAACCCCUUUACCCUCACCAUCAACAGCUCGCAGUCAAG”, the binding signal (log2 fold change) is -0.121.

Consider “GGUCACGUCUCAAUCAACUCAUCGCCAGGAGUUUACUCCUGCUUUUUCAACAGCUCGCAGUCAAG”, for which the binding signal (log2 fold change) is -0.19.

With “GGUCACGUCUCAAUCAACUCUUCGUCAGGAGUUUUCUCCUGUAUUCUCAACAGCUCGCAGUCAAG”, the binding signal (log2 fold change) came out at 0.0236.

Consider “GGUCACGUCUCAAUCAACUCUUCCGAGGGGGGGAAAACCCCUUUACCCUCAACAUCAACAGCUCGCAGUCAAG”, for which the binding signal (log2 fold change) stood at 0.279.

Regarding “GGUCACGUCUCAAUCAACUCUUCUUCAGGAGUUUCCUCCUGCUUACUCAACAGCUCGCAGUCAAG”, the binding signal (log2 fold change) came to 0.139.

As to “GGUCACGUCUCAAUCAACUCAUCUUCCAGGGAAAGCCCUGGCUAUCUCAACAGCUCGCAGUCAAG”, the binding signal (log2 fold change) is -0.27.

With “GGUCACGUCUCAAUCAACUCUUACGAGGGGGGGAAAACCCCUUUACCCUCAACAUCAACAGCUCGCAGUCAAG”, the binding signal (log2 fold change) was 0.181.

On to “GGUCACGUCUCAAUCAACUCUUAAGAGGGGGGGAAAACCCCUUUGCCCUCAAUUUCAACAGCUCGCAGUCAAG”, for which the binding signal (log2 fold change) was -0.503.

In the case of “GGUCACGUCUCAAUCAACUCUAUCUCCAGGGAAAGCCCUGGUAUACUCAACAGCUCGCAGUCAAG”, the binding signal (log2 fold change) worked out at 0.0996.
